# Experimental data published in paper PMC4336329 (PLoS ONE, 2015).
# The whole screen tested about 310,000 compounds, of which about 14,000 (4.5%) showed an effect of 50% or more. The effect is printed as a negative number. This is one part of the list.
# Target: human ether-à-go-go-related gene (hERG) potassium channel (human, UniProt Q12809)
# Experiment: primary screen, population patch clamp on CHO cells stably expressing hERG
# 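Note: peak tail current of the secondary pulse compared with the same well before compound.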
# Sequence of human ether-à-go-go-related gene (hERG) potassium channel (Q12809 whole entry, looked up): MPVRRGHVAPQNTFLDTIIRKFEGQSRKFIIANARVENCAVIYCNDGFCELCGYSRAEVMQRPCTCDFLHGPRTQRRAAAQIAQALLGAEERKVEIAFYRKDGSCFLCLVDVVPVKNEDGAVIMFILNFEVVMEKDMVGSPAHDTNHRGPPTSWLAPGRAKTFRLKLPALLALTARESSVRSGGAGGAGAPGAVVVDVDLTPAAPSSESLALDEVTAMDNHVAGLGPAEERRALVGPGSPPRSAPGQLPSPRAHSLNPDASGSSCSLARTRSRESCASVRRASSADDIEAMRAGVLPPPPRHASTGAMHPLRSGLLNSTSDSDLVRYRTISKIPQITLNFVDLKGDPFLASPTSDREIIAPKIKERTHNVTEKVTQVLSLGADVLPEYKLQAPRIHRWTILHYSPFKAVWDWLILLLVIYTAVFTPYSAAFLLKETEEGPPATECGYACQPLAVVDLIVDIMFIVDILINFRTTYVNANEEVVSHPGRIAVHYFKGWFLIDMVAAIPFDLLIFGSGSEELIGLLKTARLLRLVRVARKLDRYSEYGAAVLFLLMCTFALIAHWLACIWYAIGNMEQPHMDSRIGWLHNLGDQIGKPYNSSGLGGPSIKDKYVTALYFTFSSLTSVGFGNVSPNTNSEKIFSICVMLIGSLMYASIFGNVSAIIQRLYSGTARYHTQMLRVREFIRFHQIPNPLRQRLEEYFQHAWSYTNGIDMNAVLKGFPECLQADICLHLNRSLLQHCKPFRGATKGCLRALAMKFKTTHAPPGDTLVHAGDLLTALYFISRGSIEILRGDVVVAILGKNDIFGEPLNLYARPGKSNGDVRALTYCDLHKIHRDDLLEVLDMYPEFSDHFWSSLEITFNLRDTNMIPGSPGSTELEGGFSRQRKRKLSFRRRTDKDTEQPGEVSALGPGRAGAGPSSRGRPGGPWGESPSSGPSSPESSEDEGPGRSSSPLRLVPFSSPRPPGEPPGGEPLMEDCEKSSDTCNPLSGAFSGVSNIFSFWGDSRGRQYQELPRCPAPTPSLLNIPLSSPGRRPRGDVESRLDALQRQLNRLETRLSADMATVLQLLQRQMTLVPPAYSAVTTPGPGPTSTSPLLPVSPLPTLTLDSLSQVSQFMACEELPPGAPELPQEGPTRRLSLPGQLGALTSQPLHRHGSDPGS
row,SMILES,"hERG current change (%, negative = inhibition) at 10uM [%]"
1,Cc1cc(Br)ccc1NC(=O)c1ccc(-n2cncn2)c([N+](=O)[O-])c1,12.3
2,CC(C)[C@H](NC(=O)C1CCCC1)c1nc2ccccc2[nH]1,7.25
3,CC(C(=O)OCc1nnc(-c2ccccc2)o1)N1C(=O)c2ccccc2C1=O (stereo not drawn),-19.2
4,CCN(CC)c1ccc(S(=O)(=O)N(CC)CC)cc1NC(=O)c1cccnc1,-72.5
5,CCOC(=O)c1cc(C#N)c(SCc2cccc3ccccc23)nc1C,9.85
6,Cc1sc2ncn(CC(=O)N3CCN(c4ccccc4F)CC3)c(=O)c2c1S(=O)(=O)N1CCOCC1,-8.31
7,O=C(Nc1ccc2oc(Cc3ccc(Cl)cc3)nc2c1)c1cccnc1,-19.6
8,O=c1cc(-c2ccccc2Cl)oc2c(NS(=O)(=O)c3ccccc3C(F)(F)F)ccc(O)c12,4.79
9,CC(C)Oc1ccccc1NC(=O)CSc1nc2ccccc2c(=O)n1C,-14.8
10,Cc1c([N+](=O)[O-])cc(C(=O)NCc2ccc(F)cc2)cc1[N+](=O)[O-],-33.8
11,CCOc1nc(N2CCCCC2)nc(-n2cc(-c3ccccc3)nn2)n1,8.93
12,Cc1ccc(C2=N/C(=C/N3CCOCC3)C(=O)O2)cc1,-17.8
13,Cc1ccccc1NC(=O)CSCCN1C(=O)c2ccccc2C1=O,7.68
14,O=C(c1cc(-c2ccc(Cl)c(Cl)c2)on1)N1CCCCCC1,8.29
15,COc1cccc(NC(=O)CCC(=O)Nc2cccc(OC)c2)c1,10.5
16,CCN1CCN(C(=O)c2cc(-c3cccnc3)nc3ccc(Br)cc23)CC1,-28.5
17,COC(=O)c1ccccc1NC(=O)CN(c1ccc(OC)cc1)S(C)(=O)=O,-25.4
18,O=[N+]([O-])c1cc([N+](=O)[O-])c(N2CCOCC2)cc1NCc1ccccc1,7.56
19,O=c1c2ccccc2nc(CSc2ncnc3nc[nH]c23)n1-c1cccc(C(F)(F)F)c1,-7.66
20,Cc1ccccc1OCCSc1nnc(C)n1-c1ccccc1,-5.36
21,Cc1ccc(NC(=O)CN2C(=O)CSc3ccc(S(=O)(=O)N4CCCCC4)cc32)cc1,17.9

row,SMILES,"hERG current change (%, negative = inhibition) at 10uM [%]"
1,C=CCNc1oc(-c2cccs2)nc1C#N,-6.12
2,NC(=O)CC(NC(=O)c1ccccc1)c1ccc(N2CCN(c3ccccn3)CC2)c([N+](=O)[O-])c1 (stereo not drawn),7.06
3,COC(OC)c1nc(SCC(=O)Nc2cccc(Cl)c2)ncc1C(=O)O,14.5
4,O=C(NCCN1CCOCC1)c1cnn2c1NC(c1cccs1)CC2C(F)(F)F (stereo not drawn),1.11
5,COP(=O)(OC)c1nc(-c2cccc3ccccc23)oc1NCc1ccccc1,-3.32
6,CCC(=O)OCCn1c(Br)nc2c1c(=O)[nH]c(=O)n2C,-0.796
7,COc1ccc(S(=O)(=O)N(CC(=O)N/N=C/c2ccc(C(=O)O)cc2)Cc2ccccc2)cc1OC,10.9
8,CCOc1ccc(C(C)=O)cc1CSc1nc2nc(C)cc(C)n2n1,20.1
9,COC(=O)COc1cc(Cl)c(C=O)cc1OC,19.7
10,O=C(N/N=C/c1ccc(Cl)cc1)c1cc2c(s1)-c1ccccc1CC2,0.145
11,O=C(CSc1ncnc2ccccc12)c1ccc2c(c1)OCCO2,-8.58
12,CCOc1cc2c(cc1/C=C/C(=O)O)OC(C)C2 (stereo not drawn),-0.48
13,CCn1nnnc1SCC(=O)N1CCc2ccccc21,3.69
14,CN(C)c1ccc(CNc2ccc3c(c2)ncn3C)cc1,-4.51
15,COc1ccc(CN(C)C(=O)c2cc(-c3ccccc3)nc3ccc(C)cc23)c(OC)c1OC,-3.99
16,O=C(O)CN1C(=O)CC(Cc2ccc(Cl)cc2)C1=O (stereo not drawn),-1.01
17,Cc1coc(NC(=O)CSc2nc(-c3ccncc3)cc(C(F)(F)F)c2C#N)n1,-0.488
18,O=C(Nc1ccccc1)Nc1nc2ccccc2s1,3.9
19,COc1cc(CN(C(=O)c2cc3ccccc3oc2=O)C2CCS(=O)(=O)C2)cc(OC)c1OC (stereo not drawn),-18.8
20,CCOc1cc(/C=C2\C(=O)ON=C2C)ccc1OCc1ccccc1,13.2
21,Nc1nnc(-c2cn(-c3ccccc3)nc2-c2ccccc2)o1,-17.1
